Measured values reported in publication PMC6919601, “Identification of Plasmodium dipeptidyl aminopeptidase allosteric inhibitors by high throughput screening” (PLoS ONE, 2019).
About 230 (0.21%) of roughly 110,000 compounds showed an effect of 50% or more. The list shows a part of the results.

Molecular target: DPAP1 (Plasmodium falciparum, UniProt Q8IIJ9)
Test: primary screen, percent inhibition; read by cleavage of a fluorogenic dipeptide substrate; higher = more effect of the substance
Parameters: species or system P. falciparum D10 trophozoite lysates; single well
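Further: 30 min substrate incubation versus DMSO and 10 µM JCP410 controls.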

Chain of DPAP1 (Q8IIJ9 whole entry, looked up): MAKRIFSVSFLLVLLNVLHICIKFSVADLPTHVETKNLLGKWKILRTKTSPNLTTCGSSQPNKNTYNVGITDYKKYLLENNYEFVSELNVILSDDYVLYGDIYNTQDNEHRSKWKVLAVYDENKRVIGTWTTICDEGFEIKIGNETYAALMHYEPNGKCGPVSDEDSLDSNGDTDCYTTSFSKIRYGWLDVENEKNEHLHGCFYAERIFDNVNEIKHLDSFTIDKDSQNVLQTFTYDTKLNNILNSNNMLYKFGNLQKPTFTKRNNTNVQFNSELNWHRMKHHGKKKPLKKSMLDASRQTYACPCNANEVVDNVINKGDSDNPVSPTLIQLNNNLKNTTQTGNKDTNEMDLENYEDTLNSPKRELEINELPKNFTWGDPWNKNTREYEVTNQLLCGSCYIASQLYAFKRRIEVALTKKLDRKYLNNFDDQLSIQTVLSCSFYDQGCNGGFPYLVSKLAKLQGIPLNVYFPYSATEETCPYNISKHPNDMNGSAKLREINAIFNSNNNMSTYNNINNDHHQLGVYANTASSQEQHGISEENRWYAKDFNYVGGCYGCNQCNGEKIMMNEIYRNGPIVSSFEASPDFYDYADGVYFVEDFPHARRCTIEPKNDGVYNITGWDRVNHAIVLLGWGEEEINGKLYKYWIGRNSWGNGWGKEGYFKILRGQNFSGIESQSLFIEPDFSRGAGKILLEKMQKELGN

SMILES	% Inhibition @ 10 uM [%]
CCCCn1c(CN2CCN(CC)CC2)nc2c1c(=O)n(C)c(=O)n2C	-0.499
CC(=O)c1cc(F)c(N2CCC(C)CC2)cc1C	-2.2
Cc1ccccc1NC(=O)Cn1c(-c2nonc2N)nc2ccccc21	19.8
CCn1c(COc2cccc(OC)c2)nc2ccccc21	-1.15
Cc1ccc(-c2cc(C(=O)NCc3cnn(C)c3)c3ccccc3n2)cc1C	-2.77
CC(C)(C)c1ccc(S(=O)(=O)NCC(=O)N2CCN(C(=O)c3ccco3)CC2)cc1	0.361
CCOc1ccc(NC(=O)CSc2nc3sc(C)c(C)c3c(=O)n2C)cc1	0.746
Cc1ccccc1OCCCOc1ccc(/C=C2/C(=N)N3C=CSC3=NC2=O)cc1	1.84
CC(=O)N1CCC2(CC1)OC(=O)C(C)=C2C(=O)NCCC1=CCCCC1	-0.501
CC(C)(C)NC(=O)c1ccccc1Sc1ccccc1C#N	3.49
COc1ccc(C=C2C(=O)NC(=O)NC2=O)c(OC)c1OC	-8.57
COc1cccc2c1Oc1ncccc1N(C(=O)CCC(=O)NCCCN1CCCCCC1)C2	3.37
CCCc1nnc2sc(NC(=O)c3cccc(OC)c3)nn12	14.6
CCCCC(NC(C)=O)c1nc2ccccc2n1Cc1ccccc1C (stereo not shown)	-1.29
CN1C(=O)C2Cc3c([nH]c4ccccc34)C(c3cccc(Cl)c3)N2C1=S (stereo not shown)	3.31
Cc1nn(-c2ccccc2)c(O)c1N=Nc1n[nH]c(C(=O)O)n1	4.99
Cc1ccc(C(C#N)NC(=O)[C@H](CC(C)C)NC(=O)c2cc(-c3ccccc3)c(-c3ccccc3)s2)o1 (stereo partly shown)	-6.46
Cc1ccccc1CSCC(=O)NCCSc1ccccn1	-2.9
Cc1ccc(OCCOc2ccc(/C=C3/C(=N)N4C(=NC3=O)SN=C4S(C)(=O)=O)cc2)cc1	0.163
CCn1c2ccccc2c2nc3ccccc3nc21	-5.34
CCCCN(C)S(=O)(=O)c1ccc(-c2ccc(O)nn2)o1	-5.97
COc1ccccc1Nc1nc(-c2ccc(Cl)cc2)cs1	2
COc1ccc(C(=O)NCC(=O)O)cc1	-1.77
COc1cccc(CNC2CCCc3ccccc32)c1OC (stereo not shown)	0.565
CCOC(=O)c1nnn(-c2nonc2NC(C)=O)c1C	-0.0735
COc1cc(C(=O)Nc2ccc(NC(=O)c3cccs3)cc2)cc(OC)c1OC	2.65
O=C(O)c1ccc(Oc2ccc(C(=O)c3ccc(C(=O)O)c(C(=O)O)c3)cc2)cc1	-1.45
Cc1cc(=O)n2nc(N3CCC(C(=O)NCc4cccnc4)CC3)sc2n1	-0.281
